# Test results taken from the supplement of paper PMC8728848.
# Some of the results follow.
# Columns and labels:
# Assay in all cases: glycan array binding signal (z-score within array); higher = stronger binding
# Details in all cases: glycan notation: IUPAC condensed, linker removed
# [1] = target: Neu5Ac(a2-3)Gal(b1-4)GlcNAc(b1-6)[Gal(b1-3)]GalNAc
# How it was run: (§1)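 Arrays were curated from the Consortium for Functional Glycomics database, 3228 in total, and kept only where the protein sequence was available. Binding is expressed as a within-array Z-score. This score was averaged across arrays of the same protein sequence at different concentrations or buffers and across linkers, and negative values can be read as non-binding.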
# [2] = target: Neu5Ac(a2-3)Gal(b1-4)GlcNAc(b1-6)[Neu5Ac(a2-3)Gal(b1-3)]GalNAc
# How it was run: as §1
# [3] = target: Neu5Ac(a2-3)Gal(b1-4)GlcNAc6S
# How it was run: as §1
# [4] = target: Neu5Ac(a2-3)Gal(b1-4)[Fuc(a1-3)]GlcNAc
# How it was run: as §1
# [5] = target: Neu5Ac(a2-3)Gal(b1-4)[Fuc(a1-3)]GlcNAc(b1-3)Gal
# How it was run: as §1
# [6] = target: Neu5Ac(a2-3)Gal(b1-4)[Fuc(a1-3)]GlcNAc(b1-3)Gal(b1-4)GlcNAc
# How it was run: as §1
# [7] = target: Neu5Ac(a2-3)Gal(b1-4)[Fuc(a1-3)]GlcNAc(b1-3)Gal(b1-4)[Fuc(a1-3)]GlcNAc(b1-3)Gal(b1-4)[Fuc(a1-3)]GlcNAc
# How it was run: as §1
# [8] = target: Neu5Ac(a2-3)Gal(b1-4)[Fuc(a1-3)]GlcNAc(b1-6)[Gal(b1-3)]GalNAc
# How it was run: as §1
# [9] = target: Neu5Ac(a2-3)Gal(b1-4)[Fuc(a1-3)]GlcNAc(b1-6)[Neu5Ac(a2-3)Gal(b1-3)]GalNAc
# How it was run: as §1
# [10] = target: Neu5Ac(a2-3)Gal(b1-4)[Fuc(a1-3)]GlcNAc6S
# How it was run: as §1
# [11] = target: Neu5Ac(a2-3)Gal6S(b1-4)GlcNAc
# How it was run: as §1
# [12] = target: Neu5Ac(a2-3)Gal6S(b1-4)[Fuc(a1-3)]GlcNAc
# How it was run: as §1
# Neu5Ac(a2-3)GalNAc = target: Neu5Ac(a2-3)GalNAc
# How it was run: as §1
# [13] = target: Neu5Ac(a2-3)GalNAc(b1-4)GlcNAc
# How it was run: as §1
# [14] = target: Neu5Ac(a2-3)[GalNAc(b1-4)]Gal(b1-4)Glc
# How it was run: as §1
# [15] = target: Neu5Ac(a2-3)[GalNAc(b1-4)]Gal(b1-4)GlcNAc
# How it was run: as §1
# [16] = target: Neu5Ac(a2-3)[Neu5Ac(a2-6)]GalNAc
# How it was run: as §1
# Neu5Ac(a2-6)Gal = target: Neu5Ac(a2-6)Gal
# How it was run: as §1
# Neu5Ac(a2-6)Gal(b1-4)Glc = target: Neu5Ac(a2-6)Gal(b1-4)Glc
# How it was run: as §1
# [17] = target: Neu5Ac(a2-6)Gal(b1-4)GlcNAc
# How it was run: as §1
# [18] = target: Neu5Ac(a2-6)Gal(b1-4)GlcNAc(b1-2)Man(a1-3)Man(b1-4)GlcNAc(b1-4)GlcNAc
# How it was run: as §1
# [19] = target: Neu5Ac(a2-6)Gal(b1-4)GlcNAc(b1-2)Man(a1-3)[Gal(b1-4)GlcNAc(b1-2)Man(a1-6)]Man(b1-4)GlcNAc(b1-4)GlcNAc
# How it was run: as §1
# [20] = target: Neu5Ac(a2-6)Gal(b1-4)GlcNAc(b1-2)Man(a1-3)[GlcNAc(b1-2)Man(a1-6)]Man(b1-4)GlcNAc(b1-4)GlcNAc
# How it was run: as §1
# [21] = target: Neu5Ac(a2-6)Gal(b1-4)GlcNAc(b1-2)Man(a1-3)[GlcNAc(b1-2)Man(b1-4)GlcNAc(b1-2)Man(a1-6)]Man(b1-4)GlcNAc(b1-4)GlcNAc
# How it was run: as §1
# [22] = target: Neu5Ac(a2-6)Gal(b1-4)GlcNAc(b1-2)Man(a1-3)[Man(a1-6)]Man(b1-4)GlcNAc(b1-4)GlcNAc
# How it was run: as §1
# [23] = target: Neu5Ac(a2-6)Gal(b1-4)GlcNAc(b1-2)Man(a1-3)[Neu5Ac(a2-6)Gal(b1-4)GlcNAc(b1-2)Man(a1-6)]Man(b1-4)GlcNAc(b1-4)GlcNAc
# How it was run: as §1
# [24] = target: Neu5Ac(a2-6)Gal(b1-4)GlcNAc(b1-2)Man(a1-6)Man(b1-4)GlcNAc(b1-4)GlcNAc
# How it was run: as §1
# [25] = target: Neu5Ac(a2-6)Gal(b1-4)GlcNAc(b1-2)Man(a1-6)[Gal(b1-4)GlcNAc(b1-2)Man(a1-3)]Man(b1-4)GlcNAc(b1-4)GlcNAc
# How it was run: as §1
# [26] = target: Neu5Ac(a2-6)Gal(b1-4)GlcNAc(b1-2)Man(a1-6)[GlcNAc(b1-2)Man(a1-3)]Man(b1-4)GlcNAc(b1-4)GlcNAc
# How it was run: as §1
# [27] = target: Neu5Ac(a2-6)Gal(b1-4)GlcNAc(b1-2)Man(a1-6)[Man(a1-3)]Man(b1-4)GlcNAc(b1-4)GlcNAc
# How it was run: as §1
# [28] = target: Neu5Ac(a2-6)Gal(b1-4)GlcNAc(b1-3)Gal(b1-3)GlcNAc
# How it was run: as §1
# [29] = target: Neu5Ac(a2-6)Gal(b1-4)GlcNAc(b1-3)Gal(b1-4)GlcNAc
# How it was run: as §1
# [30] = target: Neu5Ac(a2-6)Gal(b1-4)GlcNAc(b1-3)Gal(b1-4)GlcNAc(b1-3)Gal(b1-4)GlcNAc
# How it was run: as §1
# [31] = target: Neu5Ac(a2-6)Gal(b1-4)GlcNAc(b1-3)Gal(b1-4)[Fuc(a1-3)]GlcNAc(b1-3)Gal(b1-4)[Fuc(a1-3)]GlcNAc
# How it was run: as §1
# [32] = target: Neu5Ac(a2-6)Gal(b1-4)GlcNAc(b1-3)GalNAc
# How it was run: as §1
# [33] = target: Neu5Ac(a2-6)Gal(b1-4)GlcNAc6S
# How it was run: as §1
# Neu5Ac(a2-6)GalNAc = target: Neu5Ac(a2-6)GalNAc
# How it was run: as §1
# [34] = target: Neu5Ac(a2-6)GalNAc(b1-4)GlcNAc
# How it was run: as §1
# [35] = target: Neu5Ac(a2-6)GlcNAc(b1-4)GlcNAc
# How it was run: as §1
# [36] = target: Neu5Ac(a2-6)GlcNAc(b1-4)GlcNAc(b1-4)GlcNAc
# How it was run: as §1
# Neu5Ac(a2-8)Neu5Ac = target: Neu5Ac(a2-8)Neu5Ac
# How it was run: as §1
# [37] = target: Neu5Ac(a2-8)Neu5Ac(a2-3)Gal(b1-4)Glc
# How it was run: as §1
# [38] = target: Neu5Ac(a2-8)Neu5Ac(a2-3)[GalNAc(b1-4)]Gal(b1-4)Glc
# How it was run: as §1
# [39] = target: Neu5Ac(a2-8)Neu5Ac(a2-8)Neu5Ac
# How it was run: as §1
# [40] = target: Neu5Ac(a2-8)Neu5Ac(a2-8)Neu5Ac(a2-3)Gal(b1-4)Glc
# How it was run: as §1
# [41] = target: Neu5Ac(a2-8)Neu5Ac(a2-8)Neu5Ac(a2-3)[GalNAc(b1-4)]Gal(b1-4)Glc
# How it was run: as §1
# [42] = target: Neu5Ac(a2-8)Neu5Ac(a2-8)Neu5Ac(a2-8)Neu5Ac(a2-3)[GalNAc(b1-4)]Gal(b1-4)Glc
# How it was run: as §1
# Neu5Ac(b1-6)GalNAc = target: Neu5Ac(b1-6)GalNAc
# How it was run: as §1
# [43] = target: Neu5Ac(b2-6)Gal(b1-4)GlcNAc
# How it was run: as §1
# Neu5Ac(b2-6)GalNAc = target: Neu5Ac(b2-6)GalNAc
# How it was run: as §1
# [44] = target: Neu5Ac9Ac(a2-3)Gal(b1-3)GlcNAc
# How it was run: as §1
# [45] = target: Neu5Ac9Ac(a2-3)Gal(b1-4)GlcNAc
# How it was run: as §1
# [46] = target: Neu5Ac9Ac(a2-6)Gal(b1-4)GlcNAc
# How it was run: as §1
# [47] = target: Neu5Gc(a2-3)Gal(b1-3)GlcNAc
# How it was run: as §1
# [48] = target: Neu5Gc(a2-3)Gal(b1-3)[Fuc(a1-4)]GlcNAc
# How it was run: as §1
# Neu5Gc(a2-3)Gal(b1-4)Glc = target: Neu5Gc(a2-3)Gal(b1-4)Glc
# How it was run: as §1
# [49] = target: Neu5Gc(a2-3)Gal(b1-4)GlcNAc
# How it was run: as §1
# [50] = target: Neu5Gc(a2-3)Gal(b1-4)[Fuc(a1-3)]GlcNAc
# How it was run: as §1
# [51] = target: Neu5Gc(a2-6)Gal(b1-4)GlcNAc
# How it was run: as §1
# Neu5Gc(a2-6)GalNAc = target: Neu5Gc(a2-6)GalNAc
# How it was run: as §1
# [52] = target: Neu5Gc(b2-6)Gal(b1-4)GlcNAc
# How it was run: as §1
binder,measurement,setting,value
"MVL (Microcystis viridis), Q9RHG4 (protein) MASYKVNIPAGPLWSNAEAQQVGPKIAAAHQGNFTGQWTTVVESAMSVVEVELQVENTGIHEFKTDVLAGPLWSNDEAQKLGPQIAASYGAEFTGQWRTIVEGVMSVIQIKYTF",glycan array binding signal (z-score),[1],-0.247
same,glycan array binding signal (z-score),[2],-0.226
same,glycan array binding signal (z-score),[3],-0.238
same,glycan array binding signal (z-score),[4],-0.23
same,glycan array binding signal (z-score),[5],-0.239
same,glycan array binding signal (z-score),[6],-0.205
same,glycan array binding signal (z-score),[7],-0.242
same,glycan array binding signal (z-score),[8],-0.078
same,glycan array binding signal (z-score),[9],-0.186
same,glycan array binding signal (z-score),[10],-0.235
same,glycan array binding signal (z-score),[11],-0.23
same,glycan array binding signal (z-score),[12],-0.24
same,glycan array binding signal (z-score),Neu5Ac(a2-3)GalNAc,-0.194
same,glycan array binding signal (z-score),[13],-0.247
same,glycan array binding signal (z-score),[14],-0.242
same,glycan array binding signal (z-score),[15],-0.233
same,glycan array binding signal (z-score),[16],-0.222
same,glycan array binding signal (z-score),Neu5Ac(a2-6)Gal,-0.236
same,glycan array binding signal (z-score),Neu5Ac(a2-6)Gal(b1-4)Glc,-0.237
same,glycan array binding signal (z-score),[17],-0.241
same,glycan array binding signal (z-score),[18],0.179
same,glycan array binding signal (z-score),[19],1.31
same,glycan array binding signal (z-score),[20],0.479
same,glycan array binding signal (z-score),[21],0.477
same,glycan array binding signal (z-score),[22],0.819
same,glycan array binding signal (z-score),[23],0.682
same,glycan array binding signal (z-score),[24],0.781
same,glycan array binding signal (z-score),[25],0.474
same,glycan array binding signal (z-score),[26],1.22
same,glycan array binding signal (z-score),[27],1.19
same,glycan array binding signal (z-score),[28],-0.246
same,glycan array binding signal (z-score),[29],-0.236
same,glycan array binding signal (z-score),[30],-0.227
same,glycan array binding signal (z-score),[31],-0.201
same,glycan array binding signal (z-score),[32],-0.223
same,glycan array binding signal (z-score),[33],-0.24
same,glycan array binding signal (z-score),Neu5Ac(a2-6)GalNAc,-0.241
same,glycan array binding signal (z-score),[34],-0.241
same,glycan array binding signal (z-score),[35],-0.24
same,glycan array binding signal (z-score),[36],-0.17
same,glycan array binding signal (z-score),Neu5Ac(a2-8)Neu5Ac,-0.235
same,glycan array binding signal (z-score),[37],-0.235
same,glycan array binding signal (z-score),[38],-0.235
same,glycan array binding signal (z-score),[39],-0.242
same,glycan array binding signal (z-score),[40],-0.236
same,glycan array binding signal (z-score),[41],-0.238
same,glycan array binding signal (z-score),[42],-0.242
same,glycan array binding signal (z-score),Neu5Ac(b1-6)GalNAc,-0.244
same,glycan array binding signal (z-score),[43],-0.237
same,glycan array binding signal (z-score),Neu5Ac(b2-6)GalNAc,-0.242
same,glycan array binding signal (z-score),[44],-0.246
same,glycan array binding signal (z-score),[45],-0.24
same,glycan array binding signal (z-score),[46],-0.239
same,glycan array binding signal (z-score),[47],-0.24
same,glycan array binding signal (z-score),[48],-0.243
same,glycan array binding signal (z-score),Neu5Gc(a2-3)Gal(b1-4)Glc,-0.222
same,glycan array binding signal (z-score),[49],-0.236
same,glycan array binding signal (z-score),[50],-0.234
same,glycan array binding signal (z-score),[51],-0.236
same,glycan array binding signal (z-score),Neu5Gc(a2-6)GalNAc,-0.238
same,glycan array binding signal (z-score),[52],-0.233
